Results taken from PubChem BioAssay AID504332 (National Center for Advancing Translational Sciences (NCATS), 2011).
In all, about 350,000 compounds went through this assay and about 31,000 (8.9%) were called active. Inconclusive results, whose numbers are uncertain, are shown with a selection of clear calls. Calls follow the shape of the dose curve; as a rule, active = well fitted inhibition curve with a large enough effect; inconclusive = small, poorly fitted or top-dose-only effect; inactive = no such curve, though single readings can be large or run the other way. Potencies of inconclusive entries are doubtful fits and often do not repeat.

Each compound was assayed against Histone-lysine N-methyltransferase EHMT2 (Homo sapiens) (UniProt Q96KQ7) (assay: qHTS Assay for Inhibitors of Histone Lysine Methyltransferase G9a). Conditions: G9a H3K9 monomethylation, AlphaScreen, 2 h; activity, negative = inhibition: at 59 µM (top of the series) unless noted.
Summary of the method: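 Chemiluminescent proximity detection of H3K9 monomethylation, read after 10 min bead incubation in the dark. Reaction: 20 nM G9a, 500 nM biotin-H3K9 peptide, 20 uM SAM cofactor, 2 h, room temperature, following 15 min enzyme-compound preincubation.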
% is scaled to controls: 0 for no effect and ±100 for the full control effect; potency is read from the fitted curve at half-maximal effect; tags tell the direction and shape of the fitted curve.
Also: nearly all actives have a fitted effect of over 75% in size.

Sequence of UniProt Q96KQ7 (Q96KQ7 whole entry, looked up): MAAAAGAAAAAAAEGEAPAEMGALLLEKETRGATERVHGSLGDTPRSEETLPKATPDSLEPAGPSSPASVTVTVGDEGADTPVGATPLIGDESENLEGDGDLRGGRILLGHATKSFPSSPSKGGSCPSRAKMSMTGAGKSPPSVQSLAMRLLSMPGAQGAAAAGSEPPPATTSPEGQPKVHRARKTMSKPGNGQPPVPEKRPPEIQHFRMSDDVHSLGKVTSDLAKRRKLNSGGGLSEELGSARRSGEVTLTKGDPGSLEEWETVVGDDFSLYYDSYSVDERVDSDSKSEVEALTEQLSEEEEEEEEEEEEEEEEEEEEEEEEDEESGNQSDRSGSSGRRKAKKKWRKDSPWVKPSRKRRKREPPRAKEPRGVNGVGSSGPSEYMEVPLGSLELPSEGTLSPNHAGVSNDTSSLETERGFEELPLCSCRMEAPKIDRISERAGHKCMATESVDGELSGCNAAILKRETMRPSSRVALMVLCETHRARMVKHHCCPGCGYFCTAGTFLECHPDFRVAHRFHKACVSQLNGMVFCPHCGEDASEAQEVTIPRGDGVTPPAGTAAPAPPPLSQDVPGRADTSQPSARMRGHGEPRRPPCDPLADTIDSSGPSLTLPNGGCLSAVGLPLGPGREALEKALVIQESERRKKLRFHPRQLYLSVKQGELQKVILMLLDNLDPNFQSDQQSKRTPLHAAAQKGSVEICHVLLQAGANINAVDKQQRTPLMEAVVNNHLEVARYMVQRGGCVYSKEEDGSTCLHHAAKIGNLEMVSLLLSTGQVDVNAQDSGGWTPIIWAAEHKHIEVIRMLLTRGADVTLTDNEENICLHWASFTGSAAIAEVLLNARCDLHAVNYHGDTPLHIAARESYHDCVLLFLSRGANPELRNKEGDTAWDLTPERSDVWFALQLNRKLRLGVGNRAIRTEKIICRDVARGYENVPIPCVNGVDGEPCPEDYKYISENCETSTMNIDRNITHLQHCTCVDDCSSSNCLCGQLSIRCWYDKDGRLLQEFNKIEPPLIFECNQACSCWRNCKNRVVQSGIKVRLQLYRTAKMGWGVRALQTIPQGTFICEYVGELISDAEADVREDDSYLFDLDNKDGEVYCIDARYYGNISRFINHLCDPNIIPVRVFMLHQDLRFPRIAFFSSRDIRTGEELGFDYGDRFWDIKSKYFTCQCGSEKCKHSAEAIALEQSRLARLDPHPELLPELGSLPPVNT

Row | SMILES | Potency | activity, negative = inhibition
1 | CCOC(=O)Cn1c(=S)[nH]c2c(oc3ccc(Cl)cc32)c1=O | inconclusive: 2 µM [inhibitor, partial curve, poor fit] | 
2 | COc1ccc(CNC2CCCCC2C)c(OC)c1 (stereo not given) | active: 14.1 µM | 
3 | CCCS(=O)(=O)N1CCN(Cc2ccncc2)CC1 | inconclusive: 1.12 µM [inhibitor, single point] | 
4 | Cc1ccc(C(=O)N/C(=C\c2ccc(-c3ccccc3[N+](=O)[O-])o2)C(=O)NCCCN(C)C)cc1 | active: 50.1 µM | 
5 | CCOCCCn1c(=NC(=O)c2cccs2)c(C#N)cc2c(=O)n3cccc(C)c3nc21 | active: 70.8 µM | 
6 | CCSc1nnc(NC(=O)CSc2nnc(CNC(=O)c3ccc(OC)cc3)o2)s1 |  | inactive: -17.1%
7 | COC(=O)NC(=S)N1CCOCC1 | inconclusive: 28.2 µM [inhibitor, single point] | 
8 | O=C(Nc1ccc(F)cc1C(F)(F)F)C1CCN(c2ncccn2)CC1 |  | inactive: -24.4%
9 | COc1ccc(NC(=O)c2cc(-c3ccc(C)cc3)on2)cc1 |  | inactive: -5.29% [at 0.501 µM]
10 | COC1C(C)=C(C)C(=O)N1Cc1ccc(F)cc1 (stereo not given) | inconclusive: 79.4 µM [inhibitor, single point] | 
11 | O=C(c1ccco1)N1CCN(CC(O)Cn2c3ccccc3c3ccccc32)CC1 (stereo not given) | inconclusive: 89.1 µM [inhibitor, single point] | 
12 | O=C(CC1Sc2ccccc2NC1=O)OCC(=O)N1CCc2ccccc21 (stereo not given) | inconclusive: 31.6 µM [inhibitor, full curve] | 
13 | COc1ccc(S(=O)(=O)c2cn(C)c3ccc(C)cc3c2=O)cc1 |  | inactive: 1.2%
14 | COc1ccc2nc(SCC(=O)C(C)(C)C)[nH]c2c1 | active: 56.2 µM | 
15 | CC(C)(SC(=S)N1CCOCC1)C(=O)O | inconclusive: 7.94 µM [inhibitor, full curve, poor fit] | 
16 | CCOC(=O)c1[nH]c(CN2CCN(c3ccc(OC)cc3)CC2)c(C(=O)OCC)c1C | active: 22.4 µM | 
17 | CCOc1cc(C2CC(=O)NC3=C2C(=O)C(C(=O)OC)C(C)C3)cc(Cl)c1O (stereo not given) | active: 50.1 µM | 
18 | O=C1CCC/C(=N/NC(=O)c2ccc(NS(=O)(=O)c3cccs3)cc2)C1 | inconclusive: 56.2 µM [inhibitor, partial curve] | 
19 | O=C(CSc1ncnc2ccccc12)Nc1ccc2c(c1)OCO2 | inconclusive: 25.1 µM [inhibitor, partial curve, poor fit] | 
20 | Cc1cccnc1CN1CCN(C(=O)CCc2nnc(CCc3ccccc3)o2)CC1 | inconclusive: 0.708 µM [inhibitor, partial curve, poor fit] | 
21 | O=C(Nc1cccc(Cl)c1)Nc1cc(S(=O)(=O)N2CCOCC2)ccc1N1CCCC1 | inconclusive: 25.1 µM [inhibitor, single point] | 
22 | Cc1ccc(-c2csc(NC(=O)C3=COCCO3)n2)cc1C | active: 56.2 µM | 
23 | O=C(CCCc1ccccc1)NCc1cccnc1 | inconclusive: 79.4 µM [inhibitor, partial curve, poor fit] | 

Row | SMILES | Potency | activity, negative = inhibition
24 | Nc1nnc(CC(=O)N/N=C\c2cc([N+](=O)[O-])ccc2O)s1 | inconclusive: 31.6 µM [inhibitor, partial curve, poor fit] | 
25 | COc1ccc(NS(=O)(=O)c2ccc3c(c2)N(C(C)=O)CCO3)cc1 |  | inactive: 19.3% [at 102 µM]
26 | C=CCn1c(N2CCCCCC2)nc2c1c(=O)n(C)c(=O)n2C | inconclusive: 39.8 µM [inhibitor, single point] | 
27 | COC(=O)C1CCN(C(=O)/C=C/c2ccc(OC)cc2)CC1 | inconclusive: 63.1 µM [inhibitor, partial curve, poor fit] | 
28 | COC(=O)Nc1ccc2[nH]cc(CCNC(C)=O)c2c1 | inconclusive: 6.31 µM [inhibitor, partial curve] | 
29 | Oc1[nH]c2ccccc2c1N=Nc1ccccc1 |  | inactive: 4.24% [at 12.7 µM]
30 | COc1ccc(NC(=O)CSc2ccc3nc(-c4ccccc4)cn3n2)c(OC)c1 | inconclusive: 12.6 µM [inhibitor, partial curve] | 
31 | CCc1ccc(NC(=O)CCn2c(=O)c3cccn3c3ccccc32)cc1 | inactive | 
32 | O=C(NC1CCN(Cc2ccccc2)C1)c1cccc(S(=O)(=O)N2CCOCC2)c1 (stereo not given) | inconclusive: 89.1 µM [inhibitor, partial curve, poor fit] | 
33 | COc1ccccc1CNC(=O)c1cc2sccc2n1Cc1ccc(Cl)cc1 |  | inactive: -2.05%
34 | CCOc1ccc(N(CC(=O)N2CCCCCC2)S(=O)(=O)c2ccc(F)cc2)cc1 | inconclusive: 56.2 µM [inhibitor, single point] | 
35 | CC(C)(C)c1ccc(Oc2ccc(NC(=O)C3CC=CCC3C(=O)O)cc2)cc1 (stereo not given) | inconclusive: 50.1 µM [inhibitor, partial curve] | 
36 | COc1ccc(CCNC(=O)CSc2nnnn2-c2ccc(OC)c(OC)c2)cc1OC |  | inactive: 1.91%
37 | CCOC(=O)c1c(C)n(C)c2ccc(O)c(CN3CCC(C)CC3)c12 |  | inconclusive: -69.7% [inhibitor]
38 | Cc1ccc(CNc2ccc3c(c2)OCO3)cc1 | inconclusive: 10 µM [inhibitor, partial curve, poor fit] | 
39 | Cc1cc(NS(=O)(=O)c2ccc(NC(=O)CCSc3ccc(F)cc3)cc2)nc(C)n1 |  | inactive: -26.6% [at 102 µM]
40 | O=C(Nc1ccc2c(c1)nc1n2CCOC1)c1ccco1 | inconclusive: 79.4 µM [inhibitor, single point] | 
41 | O=C(Nc1nc2n(n1)C(c1ccc(F)cc1)C=C(c1ccccc1)N2)c1ccco1 (stereo not given) | inconclusive: 28.2 µM [inhibitor, partial curve, poor fit] | 
42 | Cc1ccc(C(=O)Nc2ccc(C(=O)N/N=C/c3cccnc3)cc2)cc1 | active: 79.4 µM | 
43 | c1ccc(CC2CCN(c3nc4ccccc4n4cnnc34)CC2)cc1 |  | inactive: 26.6% [at 12.7 µM]
44 | Cc1ccc(CN2CCCN(CC(=O)Nc3ccc(C)cc3C)S2(=O)=O)cc1 | inconclusive: 5.01 µM [inhibitor, partial curve, poor fit] | 
45 | CCCCSc1nnc2c(n1)OC(c1ccc(Br)s1)N(C(C)=O)c1ccccc1-2 (stereo not given) | active: 10 µM | 
